In article PMC12102759 one finds Kd data, which are given here for one substance.

This experiment addresses FITC-labelled SARS-CoV-2 N wt peptide 12-26 (SARS-CoV-2). Kind of experiment: fluorescence polarisation.

As for “G3BP1 NTF2-like domain (a stretch of the chain, letters omitted) (domain or fragment; FITC on the N-terminus; other documents disagree on this pair)”, the Kd came to 1300 nM.
